# Measured values taken from PMC9911399, “Two distinct binding modes provide the RNA-binding protein RbFox with extraordinary sequence specificity”.
# Where a chain is given by its changes, count along the chain named. The list shows a part of the results.
# T1: RBFOX1 RRM (Homo sapiens, UniProt Q9NWB1 109-208)
# T1 sequence: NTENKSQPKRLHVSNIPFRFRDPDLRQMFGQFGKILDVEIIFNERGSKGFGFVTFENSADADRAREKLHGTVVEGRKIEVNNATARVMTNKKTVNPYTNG
# B1: UUGUGCU (DNA:RNA)
# RNA: GGGAGACCGGAAUUCAGAUUGUCCUUGUGCUUUAAAUCCCGUCGUAGCCACCA
# DNA 1: CAATCTGAATTCCGGTCTCCC
# DNA 2: TGGTGGCTACGACGGGATT
# B2: UAGGCAU (DNA:RNA)
# RNA: B1 RNA with U26A, U28G, G29C, C30A
# DNA 1: CAATCTGAATTCCGGTCTCCC
# DNA 2: TGGTGGCTACGACGGGATT
# B3: UUGAAAC (DNA:RNA)
# RNA: B1 RNA with U28A, G29A, C30A, U31C
# DNA 1: CAATCTGAATTCCGGTCTCCC
# DNA 2: TGGTGGCTACGACGGGATT
# B4: UCGCAAG (DNA:RNA)
# RNA: B1 RNA with U26C, U28C, G29A, C30A, U31G
# DNA 1: CAATCTGAATTCCGGTCTCCC
# DNA 2: TGGTGGCTACGACGGGATT
# B5: CUGCCUC (DNA:RNA)
# RNA: B1 RNA with U25C, U28C, G29C, C30U, U31C
# DNA 1: CAATCTGAATTCCGGTCTCCC
# DNA 2: TGGTGGCTACGACGGGATT
# B6: UACCUUU (DNA:RNA)
# RNA: B1 RNA with U26A, G27C, U28C, G29U, C30U
# DNA 1: CAATCTGAATTCCGGTCTCCC
# DNA 2: TGGTGGCTACGACGGGATT
# B7: AUGUUGG (DNA:RNA)
# RNA: B1 RNA with U25A, G29U, C30G, U31G
# DNA 1: CAATCTGAATTCCGGTCTCCC
# DNA 2: TGGTGGCTACGACGGGATT
# B8: GCAGAAA (DNA:RNA)
# RNA: GGGAGACCGGAAUUCAGAUUGUCCGCAGAAAUUAAAUCCCGUCGUAGCCACCA
# DNA 1: CAATCTGAATTCCGGTCTCCC
# DNA 2: TGGTGGCTACGACGGGATT
# B9: GUAUGCA (DNA:RNA)
# RNA: B1 RNA with U25G, G27A, U31A
# DNA 1: CAATCTGAATTCCGGTCTCCC
# DNA 2: TGGTGGCTACGACGGGATT
# B10: AAAACCG (DNA:RNA)
# RNA: B8 RNA with G25A, C26A, G28A, A29C, A30C, A31G
# DNA 1: CAATCTGAATTCCGGTCTCCC
# DNA 2: TGGTGGCTACGACGGGATT
# B11: CAACUAU (DNA:RNA)
# RNA: B8 RNA with G25C, C26A, G28C, A29U, A31U
# DNA 1: CAATCTGAATTCCGGTCTCCC
# DNA 2: TGGTGGCTACGACGGGATT
# B12: CCGACAU (DNA:RNA)
# RNA: B8 RNA with G25C, A27G, G28A, A29C, A31U
# DNA 1: CAATCTGAATTCCGGTCTCCC
# DNA 2: TGGTGGCTACGACGGGATT
# B13: GUUCACC (DNA:RNA)
# RNA: B8 RNA with C26U, A27U, G28C, A30C, A31C
# DNA 1: CAATCTGAATTCCGGTCTCCC
# DNA 2: TGGTGGCTACGACGGGATT
# B14: ACCAACA (DNA:RNA)
# RNA: B8 RNA with G25A, A27C, G28A, A30C
# DNA 1: CAATCTGAATTCCGGTCTCCC
# DNA 2: TGGTGGCTACGACGGGATT
# B15: UACGCCU (DNA:RNA)
# RNA: B1 RNA with U26A, G27C, U28G, G29C
# DNA 1: CAATCTGAATTCCGGTCTCCC
# DNA 2: TGGTGGCTACGACGGGATT
# B16: UUCGCCC (DNA:RNA)
# RNA: B1 RNA with G27C, U28G, G29C, U31C
# DNA 1: CAATCTGAATTCCGGTCTCCC
# DNA 2: TGGTGGCTACGACGGGATT
# B17: GGAACUA (DNA:RNA)
# RNA: B8 RNA with C26G, G28A, A29C, A30U
# DNA 1: CAATCTGAATTCCGGTCTCCC
# DNA 2: TGGTGGCTACGACGGGATT
# B18: GAUCGCC (DNA:RNA)
# RNA: B1 RNA with U25G, U26A, G27U, U28C, U31C
# DNA 1: CAATCTGAATTCCGGTCTCCC
# DNA 2: TGGTGGCTACGACGGGATT
# B19: CAAGGAU (DNA:RNA)
# RNA: B8 RNA with G25C, C26A, A29G, A31U
# DNA 1: CAATCTGAATTCCGGTCTCCC
# DNA 2: TGGTGGCTACGACGGGATT
# B20: CCGGCGC (DNA:RNA)
# RNA: B8 RNA with G25C, A27G, A29C, A30G, A31C
# DNA 1: CAATCTGAATTCCGGTCTCCC
# DNA 2: TGGTGGCTACGACGGGATT
# Biological target: T1, RBFOX1 RRM
# Assay: EMSA; HiTS-Eq, 1 nM pool, 10 min; buffer printed only for the single-RNA assays: 10 mM Tris pH 7.5, 150 mM NaCl, 3.4 mM EDTA, 0.001% NP-40, 30 C
# Details: tags: His6 N-terminal (pET28a); label: 5' 32P
# How it was run: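 A pool of RNA with 7 randomized nucleotides, 5′-radiolabelled and with DNA-annealed flanks, was equilibrated at 1 nM for 10 min in 50 µL with purified RbFox RRM, wild type or mutant, across increasing protein concentrations. Free RNA was separated by 8% native PAGE, excised, reverse-transcribed, barcoded by PCR and sequenced. Relative association constants were obtained from read-count changes of each RNA species versus the control reaction and normalised to the cognate motif.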
row,Binder,binding signal
1,B1,0.0255 KA relative to UGCAUGU
2,B2,0.0122 KA relative to UGCAUGU
3,B3,0.00992 KA relative to UGCAUGU
4,B4,0.0188 KA relative to UGCAUGU
5,B5,0.0175 KA relative to UGCAUGU
6,B6,0.00509 KA relative to UGCAUGU
7,B7,0.0177 KA relative to UGCAUGU
8,B8,0.00736 KA relative to UGCAUGU
9,B9,0.0319 KA relative to UGCAUGU
10,B10,0.000294 KA relative to UGCAUGU
11,B11,0.000487 KA relative to UGCAUGU
12,B12,0.00509 KA relative to UGCAUGU
13,B13,0.00812 KA relative to UGCAUGU
14,B14,0.000142 KA relative to UGCAUGU
15,B15,0.00588 KA relative to UGCAUGU
16,B16,0.00948 KA relative to UGCAUGU
17,B17,0.00705 KA relative to UGCAUGU
18,B18,0.0146 KA relative to UGCAUGU
19,B19,0.00611 KA relative to UGCAUGU
20,B20,0.0147 KA relative to UGCAUGU
